Assay results published in patent US20150038682A1.

Biological target: death receptor 4 (DR4) on Ramos cells (human) (UniProt O00220)
Experiment: cell-based or functional assay

Binder | viability of Ramos cells at 6.2 ng/ml antibody | EC50 value to induce apoptosis (Ramos cell viability, alamar Blue, overnight) | viability of Ramos cells after overnight incubation with 1,000 ng/ml antibody
HuYON007-THG (antibody) heavy 1: QVTLRESGPALVKPTQTLTLTCTFSGFSLSTSGMGVSWIRQPPGKALEWLAHIYWDDDKRYNPSLKSRLTISKDTSKNQVVLTMTNMDPVDTATYYCTRRGEYGNFDYWGQGTLVTVSSASTKGPSVFPLAPSSKSTSGGTAALGCLVKDYFPEPVTVSWNSGALTSGVHTFPAVLQSSGLYSLSSVVTVPSSSLGTQTYICNVNHKPSNTKVDKKV[left out - human IgG1 Fc with changes] heavy 2: QVTLRESGPALVKPTQTLTLTCTFSGFSLSTSGMGVSWIRQPPGKALEWLAHIYWDDDKRYNPSLKSRLTISKDTSKNQVVLTMTNMDPVDTATYYCTRRGEYGNFDYWGQGTLVTVSS[left out - human IgG1 constant region with changes]SGGGSGGGSHMKQIEDKLEEILSKLYHIENELARIKKLLGERAG light: QTVVTQEPSFSVSPGGTVTLTCRSSSGAVTTSNFANWVQQTPGQAPRGLIGGTNNRAPGVPDRFSGSLLGNKAALTITGAQADDESDYYCALWYSNHWVFGGGTKLTVL | 6% | – | –
HuYON007-KH (antibody) heavy 1: QVTLRESGPALVKPTQTLTLTCTFSGFSLSTSGMGVSWIRQPPGKALEWLAHIYWDDDKRYNPSLKSRLTISKDTSKNQVVLTMTNMDPVDTATYYCTRRGEYGNFDYWGQGTLVTVSSASTKGPSVFPLAPSSKSTSGGTAALGCLVKDYFPEPVTVSWNSGALTSGVHTFPAVLQSSGLYSLSSVVTVPSSSLGTQTYICNVNHKPSNTKVDKKV[left out - human IgG1 Fc with changes] heavy 2: QVTLRESGPALVKPTQTLTLTCTFSGFSLSTSGMGVSWIRQPPGKALEWLAHIYWDDDKRYNPSLKSRLTISKDTSKNQVVLTMTNMDPVDTATYYCTRRGEYGNFDYWGQGTLVTVSS[left out - human IgG1 constant region with changes] light: QTVVTQEPSFSVSPGGTVTLTCRSSSGAVTTSNFANWVQQTPGQAPRGLIGGTNNRAPGVPDRFSGSLLGNKAALTITGAQADDESDYYCALWYSNHWVFGGGTKLTVL | – | > 1 µg/mL | 100%
trimeric HuYON007-THA (antibody) heavy 1: QVTLRESGPALVKPTQTLTLTCTFSGFSLSTSGMGVSWIRQPPGKALEWLAHIYWDDDKRYNPSLKSRLTISKDTSKNQVVLTMTNMDPVDTATYYCTRRGEYGNFDYWGQGTLVTVSSASTKGPSVFPLAPSSKSTSGGTAALGCLVKDYFPEPVTVSWNSGALTSGVHTFPAVLQSSGLYSLSSVVTVPSSSLGTQTYICNVNHKPSNTKVDKKV[left out - human IgG1 Fc with changes] heavy 2: QVTLRESGPALVKPTQTLTLTCTFSGFSLSTSGMGVSWIRQPPGKALEWLAHIYWDDDKRYNPSLKSRLTISKDTSKNQVVLTMTNMDPVDTATYYCTRRGEYGNFDYWGQGTLVTVSS[left out - about 500 residues with a human IgG1 Fc] light: QTVVTQEPSFSVSPGGTVTLTCRSSSGAVTTSNFANWVQQTPGQAPRGLIGGTNNRAPGVPDRFSGSLLGNKAALTITGAQADDESDYYCALWYSNHWVFGGGTKLTVL | – | – | < 20%
